B1: Caulobacter ParB omega fusion; a variant is named by its letters at X, in order, B8GW30 (parent)
chain: MESVVVGEPGMSEGRRGLGRGLSALLGEVDAAPAQAPGEQLGGSREAPIEILQRNPDQPRRTFREEDLEDLSNSIREKGVLQPILVRPSPDTAGEYQIVAGERAWRAAQRAGLKTVPIMVRELDDLAVLEIGIIENVQRADLNVLEEALSYKVLMEKFERTQENIAQTIGKSXSHVANXMRLLXLPDEVQSYLVSGELTAXHARAIAAAADPVALAKQIIEGGLSVRETEALARKAPNLSAGKSKGGRPPRVKDTDTQALESDLSSVLGLDVSIDHRGSTGTLTITYATLEQLDDLCNRLTRGI

Whole data set: some 81,000 sequences, median “one-hybrid fitness for binding NBS DNA” near -0.1, cut for the highest 2% near 0.36. Some of the results follow. Some results are limits rather than exact numbers.

The variants in the experiment derive from B1. Put plainly: one-hybrid fitness for binding NBS DNA (the Noc-binding site; scaled: cognate 1, non-cognate 0); higher = stronger binding. Particulars: with NBS DNA site. Summed up: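 In E. coli USO, a HIS3 reporter with its site placed 19 bp from the promoter was used to select Caulobacter ParB variants randomised at four specificity codons. Growth lasted 48 hours at 37°C on histidine-free M9 containing 0.1 mM IPTG and 5 mM 3-AT. Fitness was taken as the log change in variant-to-wild-type read ratio from Illumina sequencing of pre- and post-selection plasmids, rescaled between the non-cognate and cognate sites.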
QQCA: the “one-hybrid fitness for binding NBS DNA” value is 0.291.

Regarding QRIV, the “one-hybrid fitness for binding NBS DNA” value was ≤ 0.2. For KPMS, the “one-hybrid fitness for binding NBS DNA” value was ≤ 0.2. Regarding VPKK, the “one-hybrid fitness for binding NBS DNA” value is ≤ 0.2.

As to RCWA, the “one-hybrid fitness for binding NBS DNA” value is ≤ 0.2.

As to RWNH, the “one-hybrid fitness for binding NBS DNA” value was ≤ 0.2. As for KPDM, the figure is ≤ 0.2; as for KRKS, 0.536; as for NTWW, ≤ 0.2. Next, LHVM: ≤ 0.2. Next, PQTA: ≤ 0.2; QLFK: ≤ 0.2. In the case of QYQL, the “one-hybrid fitness for binding NBS DNA” value is ≤ 0.2. As for PTEG, the figure is ≤ 0.2; as for QREC, 0.22. Next, HAKH: ≤ 0.2; LHVV: ≤ 0.2; QKIF: ≤ 0.2. As for IDPV, the figure is ≤ 0.2.

For MVLR, the “one-hybrid fitness for binding NBS DNA” value was ≤ 0.2.

In the case of HYKT, the “one-hybrid fitness for binding NBS DNA” value is ≤ 0.2. As for SQNR, the figure is ≤ 0.2; as for IDVC, ≤ 0.2. Next, APED: ≤ 0.2; FYYS: ≤ 0.2. As for EQML, the figure is ≤ 0.2.

Take VIYM: the “one-hybrid fitness for binding NBS DNA” value is ≤ 0.2. As for FALS, the figure is ≤ 0.2. As for KRAQ, the figure is ≤ 0.2; as for EGAT, ≤ 0.2; as for PATY, ≤ 0.2.

For FYCS, the “one-hybrid fitness for binding NBS DNA” value was ≤ 0.2.

With HVTT, the “one-hybrid fitness for binding NBS DNA” value was ≤ 0.2.

In the case of SEWF, the “one-hybrid fitness for binding NBS DNA” value is ≤ 0.2. As for RMNV, the figure is ≤ 0.2; as for WACV, ≤ 0.2; as for ILEY, ≤ 0.2.

With RETC, the “one-hybrid fitness for binding NBS DNA” value was ≤ 0.2. As for SNNR, the figure is ≤ 0.2; as for ARDI, ≤ 0.2; as for GVLG, ≤ 0.2.

With KYVP, the “one-hybrid fitness for binding NBS DNA” value is ≤ 0.2. Turning to CWRI, the “one-hybrid fitness for binding NBS DNA” value was ≤ 0.2.

SVWV: the “one-hybrid fitness for binding NBS DNA” value was ≤ 0.2. Next, IQRH: ≤ 0.2; CESG: ≤ 0.2; GAWI: ≤ 0.2. Next, HCYG: ≤ 0.2; YTWG: ≤ 0.2; SCHS: ≤ 0.2.

Turning to SCKL, the “one-hybrid fitness for binding NBS DNA” value was ≤ 0.2. As for THRA, the figure is ≤ 0.2; as for RQYG, ≤ 0.2; as for PDWS, ≤ 0.2. Next, EVNV: ≤ 0.2. With EYQE, the “one-hybrid fitness for binding NBS DNA” value was ≤ 0.2.

In the case of QQDF, the “one-hybrid fitness for binding NBS DNA” value is ≤ 0.2. Next, AGTI: ≤ 0.2; CKDG: ≤ 0.2; VLVE: ≤ 0.2. As for QPFI, the “one-hybrid fitness for binding NBS DNA” value was ≤ 0.2. Next, PGPP: ≤ 0.2; HAIN: ≤ 0.2; VIAS: ≤ 0.2. Next, WPKT: ≤ 0.2.

With DTEF, the “one-hybrid fitness for binding NBS DNA” value was ≤ 0.2. Next, SQDM: ≤ 0.2; PRDR: ≤ 0.2. Turning to RNHF, the “one-hybrid fitness for binding NBS DNA” value was ≤ 0.2. As for TCSE, the figure is ≤ 0.2; as for LKVA, ≤ 0.2. Next, KWSR: ≤ 0.2; AFMD: ≤ 0.2; CQSG: ≤ 0.2. As for QCGS, the figure is 0.487; as for RPNT, ≤ 0.2. As for RWQF, the “one-hybrid fitness for binding NBS DNA” value is ≤ 0.2. As for PPDW, the figure is ≤ 0.2. Regarding EALD, the “one-hybrid fitness for binding NBS DNA” value is ≤ 0.2. Next, DYNG: ≤ 0.2. Next, YELA: ≤ 0.2; TSWF: ≤ 0.2. Next, ACPP: ≤ 0.2; SLTY: ≤ 0.2.

As for TLPV, the “one-hybrid fitness for binding NBS DNA” value is ≤ 0.2.

With GWDS, the “one-hybrid fitness for binding NBS DNA” value is ≤ 0.2.

Take GYAA: the “one-hybrid fitness for binding NBS DNA” value was ≤ 0.2.

On to MCQV, for which the “one-hybrid fitness for binding NBS DNA” value was ≤ 0.2. With RNAG, the “one-hybrid fitness for binding NBS DNA” value was ≤ 0.2. Consider GRDI, for which the “one-hybrid fitness for binding NBS DNA” value was ≤ 0.2. As for PACT, the figure is ≤ 0.2. As for WTHV, the figure is ≤ 0.2. As for TFWR, the figure is ≤ 0.2. As for WDDF, the “one-hybrid fitness for binding NBS DNA” value is ≤ 0.2. As for FNRG, the figure is ≤ 0.2.

Turning to IFYG, the “one-hybrid fitness for binding NBS DNA” value is ≤ 0.2. As for PLHR, the figure is ≤ 0.2.

For RPGK, the “one-hybrid fitness for binding NBS DNA” value was ≤ 0.2. For the variant RIYI, the “one-hybrid fitness for binding NBS DNA” value is ≤ 0.2.

On to DYAK, for which the “one-hybrid fitness for binding NBS DNA” value was ≤ 0.2. Next, ETPI: ≤ 0.2; FYHR: ≤ 0.2; HVIR: ≤ 0.2. As for YYLV, the figure is ≤ 0.2; as for PFAW, ≤ 0.2. As for SPKY, the figure is ≤ 0.2; as for MFID, ≤ 0.2; as for WVNN, ≤ 0.2. In the case of NWMR, the “one-hybrid fitness for binding NBS DNA” value is ≤ 0.2. As to FLGS, the “one-hybrid fitness for binding NBS DNA” value was ≤ 0.2.

On to WSCM, for which the “one-hybrid fitness for binding NBS DNA” value was ≤ 0.2. Take VVIT: the “one-hybrid fitness for binding NBS DNA” value was ≤ 0.2.

For the variant NSDE, the “one-hybrid fitness for binding NBS DNA” value is ≤ 0.2. Consider RWTF, for which the “one-hybrid fitness for binding NBS DNA” value is ≤ 0.2. As for WLPA, the figure is ≤ 0.2; as for PSLI, ≤ 0.2; as for TPVE, ≤ 0.2.

With YVLR, the “one-hybrid fitness for binding NBS DNA” value is ≤ 0.2. Next, EPML: ≤ 0.2; QGLG: ≤ 0.2; YSVC: ≤ 0.2. Next, IKDF: ≤ 0.2; LDKL: ≤ 0.2.

As for LIVY, the “one-hybrid fitness for binding NBS DNA” value is ≤ 0.2.

As for DMPL, the “one-hybrid fitness for binding NBS DNA” value is ≤ 0.2.

Regarding QQVA, the “one-hybrid fitness for binding NBS DNA” value turned out to be 0.271. As for QRRR, the figure is 1.1; as for THKE, ≤ 0.2.

For PHPK, the “one-hybrid fitness for binding NBS DNA” value was ≤ 0.2.

Consider GCIG, for which the “one-hybrid fitness for binding NBS DNA” value was ≤ 0.2. As for RDGR, the figure is ≤ 0.2. As for SYAW, the figure is ≤ 0.2; as for AYYG, ≤ 0.2. On to QKPC, for which the “one-hybrid fitness for binding NBS DNA” value was ≤ 0.2. Turning to AQDI, the “one-hybrid fitness for binding NBS DNA” value was ≤ 0.2. As to RFHQ, the “one-hybrid fitness for binding NBS DNA” value was ≤ 0.2.

For the variant AKTN, the “one-hybrid fitness for binding NBS DNA” value is ≤ 0.2.

For KHFS, the “one-hybrid fitness for binding NBS DNA” value was ≤ 0.2. As for RMFN, the figure is ≤ 0.2; as for VMFG, ≤ 0.2; as for KFKG, ≤ 0.2. Consider YSMM, for which the “one-hybrid fitness for binding NBS DNA” value is ≤ 0.2.

Take GKHC: the “one-hybrid fitness for binding NBS DNA” value is ≤ 0.2. As for QDSE, the figure is ≤ 0.2. With QGDY, the “one-hybrid fitness for binding NBS DNA” value was ≤ 0.2. With RHDW, the “one-hybrid fitness for binding NBS DNA” value was ≤ 0.2. Next, GDTC: ≤ 0.2; QCHF: ≤ 0.2; SLPY: ≤ 0.2. Take YHPR: the “one-hybrid fitness for binding NBS DNA” value was ≤ 0.2.

In the case of EAAE, the “one-hybrid fitness for binding NBS DNA” value was ≤ 0.2. Next, ITFA: ≤ 0.2; NQDR: ≤ 0.2; HHEY: ≤ 0.2. Next, PNDC: ≤ 0.2; KTRR: 0.541; ERRT: ≤ 0.2. Next, VCLS: ≤ 0.2; MPQQ: ≤ 0.2; FRRR: 0.224.

Regarding NRSQ, the “one-hybrid fitness for binding NBS DNA” value is ≤ 0.2.

In the case of GAEC, the “one-hybrid fitness for binding NBS DNA” value was ≤ 0.2. With HVPS, the “one-hybrid fitness for binding NBS DNA” value was ≤ 0.2. As for HCQT, the figure is ≤ 0.2; as for INRR, ≤ 0.2; as for RETE, ≤ 0.2. For QVKP, the “one-hybrid fitness for binding NBS DNA” value is ≤ 0.2.

With RKGT, the “one-hybrid fitness for binding NBS DNA” value is 0.649.

KMDE: the “one-hybrid fitness for binding NBS DNA” value was ≤ 0.2. Next, WYKR: 0.232; CTYY: ≤ 0.2; NNIT: ≤ 0.2.

On to HQRI, for which the “one-hybrid fitness for binding NBS DNA” value is ≤ 0.2. Next, AQAF: ≤ 0.2; MIHR: ≤ 0.2; DCIS: ≤ 0.2. As for LARQ, the figure is ≤ 0.2; as for PAGP, ≤ 0.2; as for WDSR, ≤ 0.2. Next, TCVA: ≤ 0.2. As to VYPL, the “one-hybrid fitness for binding NBS DNA” value is ≤ 0.2.

Regarding PQIA, the “one-hybrid fitness for binding NBS DNA” value is ≤ 0.2.

Regarding DSLE, the “one-hybrid fitness for binding NBS DNA” value is ≤ 0.2. Next, PSTW: ≤ 0.2; DYLC: ≤ 0.2; MAQC: ≤ 0.2. Next, QRWQ: 0.214. As for NELC, the figure is ≤ 0.2; as for YFMG, ≤ 0.2; as for SAMR, ≤ 0.2. Consider VFTW, for which the “one-hybrid fitness for binding NBS DNA” value is ≤ 0.2. For the variant AFHA, the “one-hybrid fitness for binding NBS DNA” value is ≤ 0.2. Next, IFSR: ≤ 0.2; CDWV: ≤ 0.2; AGPM: ≤ 0.2.

The values are drawn from a collection of fitness landscapes (doi:10.1016/j.celrep.2020.107928).
